# Assay results published in the supplement of paper PMC12632987.
# In all, about 4,500 sequences were measured (“median log2 fold change of GCK-ALFA target abundance (FLAG IP / Myc IP barcode read proportion)”: median about 0.078, lowest 2% from about -0.6 on). This is one part of the list.
# B1: GBRAP_11_2649 (protein)
# chain: SREVLLEAARLAEELARTLARLIEEGVDNEELRARARELLERLRELAERHLPEAIRRDVEVAEELWEEFLADPANAEEYARQLLAAVRVLAGNLLLLADE
# B2: GBRAP_26_5463 (protein)
# chain: MDEAFRAALDAVDAAAATLPNPNAAAAVTAEAATVLEELEEAIEAGEDIAAAVAAARDELLAAARAIGEEEGLPAATIAAMEATLTAIFDALEAALKAAA
# B3: GBRAP_128_3589 (protein)
# chain: SVEEVREWTRAQLEAMKTADAAERRAIAEALADRFLTLTPEEREAMAATIEELLPELTAEQLDILADAFRAARPRADPETANLLADIEVAALNEAEEKEE
# B4: GBRAP_128_3516 (protein)
# chain: STAAAVARVRALMAAIAAASPAEAAALTREVAALLAAADPATREAMVDEFIALLPRLSREHLETVADTLRALRPAADPDLANLLAEVEVEALNEALEKEE
# B5: GBRAP_26_5483 (protein)
# chain: REREILDELEAKVKAILADEPAEVRAAVVAEAIDALIEFAEVVEANINDEEKIEKAKKEALEEMRKFLEDLGIPEDKREKVVKALAEALEKVEKAIKEEA
# B6: GBRAP_95_7027 (protein)
# chain: EDDELAYETDVEVLETYVELGDEERAREAARRAVETAKKLGWPKPPESISLEAAKLLVEEAVRYYTEEDAKKLTEAILSVIKNEEDKKEILEHLEKLLKE
# B7: GBRAP_64_6479 (protein)
# chain: NEEIEELLEELLEAARRLLALFERENPELAPEAQEIVDLLEEAKTASLEERLDLVLEVTDRLHALLRDPRVTPEQRDALLEALDLAMALAALLAEEVEKE
# B8: GBRAP_177_5014 (protein)
# chain: LTLEELRALIADPNTTAKEAFEALKEAAPAITAEEALELLAEIVRTKPLDEEAYKAAAEAILTLSRVQGLTLAEAVGYLIEHVEAEKVEKILEAIAEVEE
# B9: GBRAP_83_6899 (protein)
# chain: KEEIAIATPADKIEEAVDAAIDLSKEEGYEVSLEILATKEELEKVKKGVERLAKAKIETEVTIYLYGATKEEAEELEKELKEIAKKYGANIKIEVILIEP
# B10: GBRAP_128_3340 (protein)
# chain: INEEKLKKVEKLVKEMIKADKEEAKKLAKELMELLVELSLEEVEKAAEIIKKYLPKLSAEHLEILADELREYRPKFSPEKALIVADLEVEALNEAVEKEE
# B11: GBRAP_95_7060 (protein)
# chain: DEDKEILLAILDTAVDLAEAGFDDQAARAIAAAADLLLELGGPEIDLDVDPETALRLARLAAETLDAERAQAVVDLLGRATGDPATAAEMRAILAAAQAK
# B12: GBRAP_137_3636 (protein)
# chain: PNVTITTKTEDDLVEINIEFDDPELAEEVAELIEDVAHKHGALALSIEINEDGTLDATIWVPKEKAQALLDALIKALKEKFNATVTVIDEDTGEVKTIKA
# B13: GBRAP_95_7031 (protein)
# chain: DDDELAAESLVEVLETYIDLGEEEKAREAARRLVLHMKESGFPKLPKGISLEAAKLIVEEAIRLLNKEDAEKLFEVVLESIEKEEDKEEVKKYYEEELKK
# B14: GBRAP_55_6436 (protein)
# chain: SEDEELDKEASESMMEVAAGLVEDPEAMERIIKRMAKELEGKKIYITAEALSLLETDEEKEAFLTAVVKAAKENKKIKGIELIDVSEEDKELLEKAKKEV
# B15: GBRAP_128_3328 (protein)
# chain: MNEERIEEAFELIEKIVKADVETAKELTRELAKLMQTLTPEERDIVVEKFEEEAKKLDAEKLDAIADTLEELQPELDPETALYANEMRVEALNLAVEKEE
# B16: GBRAP_125_3089 (protein)
# chain: SMEELKEALKLLALALGFSEEDAEEAAEIAANSSVKGTLYAIFKAEGWEELADLVEKLTEEQAKEVLKELAKKIKENPDLTKEEVIEEAKKLIKEALAKA
# B17: GBRAP_95_7070 (protein)
# chain: SEEQEIADALADTLALYLEAGLLDEAARLLVDLAEEAKENPDLKVEFPATPEELRRGLEHLAEIRPREEAIEVAEILAKHAADPEHRRALEETAERFRAE
# B18: GBRAP_11_2761 (protein)
# chain: KKEKLLRLAELAEEAAELVDELLKEGVDNEELLKKLEEKLKELREETLKINDEALIKDVEIAEELFKKLLEDPENAEEYAKELRAQLRVLSGDYLLEAEE
# B19: GBRAP_160_4486 (protein)
# chain: MEKVEEAKKEVRELIELAVEAIKESPPEQKLPIARAYAGEIAMTVYEHGLVDDEEFEELLELAERKMREMVEASERGPEELEREAERLREEIERFIEEKS
# B20: GBRAP_184_5204 (protein)
# chain: EVKEFTIEFENKEELKEKLEKLKEEVKGFKGDLYIHIIAKEITKEMAELILETLKELKEKGWVKSITVLIEGKVSEEVLDLLLEKSKEIGVKVVIALEEE
# B21: GBRAP_117_2604 (protein)
# chain: MSKLEKAKELAKKLVELIRESLELEKELSEEERKKLREKTLKEATKIVKEMLKLVDVDTLEELIAEAMKDLTPEERVKAYILYEEALAEALEERKEEEEE
# B22: GBRAP_160_4191 (protein)
# chain: MEEVEKLIKEIKEIAEEAIELIEGQSYEERLVIVEGAFGQIIMLVMESDVVSDEAEEKIAEIADEAVEYLRANPELTEEEIKELIKKATEEIIEVIKKYS
# B23: GBRAP_150_3897 (protein)
# chain: NLEEIEIIADSTADILDLMIDSGKYNVATLKTYLKAVKEEAKEADEEIKKKLKEVADAIAKLIALIEAGADPAEIKAAAKEAADLAKELAEYTEKKIEEE
# B24: GBRAP_11_2723 (protein)
# chain: KKKVLEELAKKAEKLAEKLEKLIKEGPTKEELEKLLKEAEALAEEAKKAGVPESVVETLKEAAELIKKAIKDPKTQKEYLKEALAALKVAAGQLLLEAEE
# B25: GBRAP_52_6147 (protein)
# chain: MKEEAKKIADEMIEIAKNGTEEELEKYAEEVVKTKSLELLKEIAAVLGEKSVESDEEMSEIYEKVIEVLAKAAEKAGYEDAEVDDILAAFARAAVEAEQK
# B26: GBRAP_128_3587 (protein)
# chain: SVEEVRERTRALMAAMTKADAATAAALARELAEEFTTLSLEEARAAAEVILEELPKLTAEHLDILADALRAALPRMSPEKANLAADVEVAALNQAEEKEE
# B27: GBRAP_184_5302 (protein)
# chain: AVEEVVIEADTAEAAIAALRAAAARARAAGVKLRVTLFLKNVSVEGFRRVMALLRELREQGVVESATVVLENDKSEEEIDEFVELADEAGVRLVIALPDE
# B28: GBRAP_11_2651 (protein)
# chain: EKEKLKKGAELARDAAATADALIAEGTDNAALQAELTAKLNELAELVKKHASPALKSDVDVAVELWKEFLADPANATAYAQELRAALRVLEGDFLLEIEE
# B29: GBRAP_160_4104 (protein)
# chain: AAGLAALEADFQAVFDEVLALYDEISKEELVNFYDVELSAVILEARDELGLSDETVDALLAVRDEAAEELKANYDKSREEIKAILDAALARMRAVLAAHA
# Biological target: GABARAP, O95166
# Sequence (O95166 whole entry, the tested form may be a part): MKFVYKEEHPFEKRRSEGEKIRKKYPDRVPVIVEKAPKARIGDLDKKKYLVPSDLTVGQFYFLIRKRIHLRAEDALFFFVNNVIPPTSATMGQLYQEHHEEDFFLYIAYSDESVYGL
# Assay: median log2 fold change of GCK-ALFA target abundance (FLAG IP / Myc IP barcode read proportion) (log2 ratio); each designed protein is fused to an ALFA-tag nanobody in HEK293 cells to bring the named protein to FLAG-tagged glucokinase (GCK); Myc marks an untargeted standard; higher = target protein stabilised (more abundant)
# Conditions: target protein: 3xFLAG-MCP-GCK-ALFA reporter; HEK293 landing pad (RPLP)
# Summary of the method: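 HEK293 landing-pad cells received a recombined binder library fused to the ALFA nanobody and were induced with 2 μg mL^−1 doxycycline, then transfected with a plasmid encoding a FLAG-tagged target and a Myc-tagged standard. Lysates were collected after 48 h for anti-FLAG and anti-Myc immunoprecipitation, and the circular RNA barcodes were reverse transcribed, amplified and sequenced. Target abundance for each binder is the median log2 ratio of FLAG to Myc barcode read proportions. Barcodes had to reach a proportion of at least 10^−7 in both replicates, each binder needed at least 3 barcodes per replicate, a pseudocount of 10^−6 was applied, and the two replicates were pooled.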
row,Binder,median log2 fold change
1,B1,0.289
2,B2,0.261
3,B3,0.21
4,B4,-0.179
5,B5,0.341
6,B6,0.172
7,B7,-0.254
8,B8,0.228
9,B9,0.286
10,B10,0.296
11,B11,-0.249
12,B12,-0.117
13,B13,0.163
14,B14,-0.0267
15,B15,-0.103
16,B16,0.285
17,B17,0.0679
18,B18,0.0293
19,B19,0.0876
20,B20,0.0318
21,B21,0.186
22,B22,-0.0974
23,B23,0.174
24,B24,0.199
25,B25,-0.0241
26,B26,0.305
27,B27,-0.134
28,B28,0.201
29,B29,0.11
